Data as given in ChEMBL document CHEMBL1697723, “A predictive ligand-based Bayesian model for human drug-induced liver injury” (Drug Metab Dispos, 2010).
Certain results were filed several times, with different values. The list is limited to them. There may be further records. Values that stand side by side are repeated measurements across runs, samples, wells, individuals or studies. Records carry a tag for their origin. A, B and so on number the origins entry by entry.

Test system: Hepatotoxicity
Experiment: Human drug-induced liver injury (DILI) modelling dataset from Ekins et al

Structure (SMILES): Sc1ncnc2nc[nH]c12 [MERCAPTOPURINE ANHYDROUS]
- Hepatotoxicity: DILI positive (training set) [compound entry A] and DILI positive (test set) [compound entry B]
